Assay results from article PMC10320511.
No constants are given. Whether binding was seen depends on the method and setting. In cells and extracts the contact can be indirect. Some binding calls cover weakened binding; strength is not graded here. Where a sequence is shown, tags or fusion partners need not be part of it.

Chains of the proteins cited; added tags and fusions are not shown.
UniProt Q01371: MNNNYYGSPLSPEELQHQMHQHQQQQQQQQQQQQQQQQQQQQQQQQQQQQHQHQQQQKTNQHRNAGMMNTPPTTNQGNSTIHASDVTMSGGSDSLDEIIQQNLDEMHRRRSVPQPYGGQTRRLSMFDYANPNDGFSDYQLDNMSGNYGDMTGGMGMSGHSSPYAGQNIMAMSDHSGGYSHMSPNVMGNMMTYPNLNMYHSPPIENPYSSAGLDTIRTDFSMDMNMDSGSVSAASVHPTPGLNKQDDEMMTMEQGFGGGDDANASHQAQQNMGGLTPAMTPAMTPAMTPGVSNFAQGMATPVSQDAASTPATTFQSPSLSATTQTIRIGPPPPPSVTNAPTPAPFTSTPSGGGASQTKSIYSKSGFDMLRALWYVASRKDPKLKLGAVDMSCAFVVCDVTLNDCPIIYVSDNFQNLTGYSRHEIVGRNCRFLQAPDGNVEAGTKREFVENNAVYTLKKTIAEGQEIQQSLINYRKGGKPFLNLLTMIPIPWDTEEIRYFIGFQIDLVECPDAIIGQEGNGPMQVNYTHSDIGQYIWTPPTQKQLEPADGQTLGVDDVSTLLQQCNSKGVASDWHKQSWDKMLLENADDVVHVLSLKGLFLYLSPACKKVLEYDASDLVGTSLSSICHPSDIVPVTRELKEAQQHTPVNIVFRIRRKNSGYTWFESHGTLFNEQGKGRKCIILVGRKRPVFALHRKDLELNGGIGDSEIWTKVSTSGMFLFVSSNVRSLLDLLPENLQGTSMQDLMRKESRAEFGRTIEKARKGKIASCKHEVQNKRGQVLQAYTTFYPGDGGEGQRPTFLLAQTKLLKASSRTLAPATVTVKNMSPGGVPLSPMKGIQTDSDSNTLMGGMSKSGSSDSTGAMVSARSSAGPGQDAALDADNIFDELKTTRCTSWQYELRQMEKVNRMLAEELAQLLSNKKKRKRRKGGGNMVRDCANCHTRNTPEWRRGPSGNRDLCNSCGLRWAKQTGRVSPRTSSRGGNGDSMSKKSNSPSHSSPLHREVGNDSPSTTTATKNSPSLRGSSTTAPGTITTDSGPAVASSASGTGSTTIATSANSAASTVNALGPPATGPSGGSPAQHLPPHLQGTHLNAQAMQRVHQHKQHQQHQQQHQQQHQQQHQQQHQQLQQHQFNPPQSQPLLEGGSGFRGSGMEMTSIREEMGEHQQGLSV

Legend:
[1] = molecular target: T1, FRQ E183A, E187A, V5H6-tagged (Neurospora crassa) (UniProt P19970); test: co-IP; V5H6-tagged FRQ (wild type or mutant) pulled down with V5 agarose from Neurospora lysate (cultures in the light, 25 °C); 50 mM Hepes pH 7.4, 137 mM NaCl, 10% glycerol, 0.4% NP-40; 4 °C, 2 h; Western blot with FRQ, FRH, WC-1 and WC-2 antibodies
T1 sequence: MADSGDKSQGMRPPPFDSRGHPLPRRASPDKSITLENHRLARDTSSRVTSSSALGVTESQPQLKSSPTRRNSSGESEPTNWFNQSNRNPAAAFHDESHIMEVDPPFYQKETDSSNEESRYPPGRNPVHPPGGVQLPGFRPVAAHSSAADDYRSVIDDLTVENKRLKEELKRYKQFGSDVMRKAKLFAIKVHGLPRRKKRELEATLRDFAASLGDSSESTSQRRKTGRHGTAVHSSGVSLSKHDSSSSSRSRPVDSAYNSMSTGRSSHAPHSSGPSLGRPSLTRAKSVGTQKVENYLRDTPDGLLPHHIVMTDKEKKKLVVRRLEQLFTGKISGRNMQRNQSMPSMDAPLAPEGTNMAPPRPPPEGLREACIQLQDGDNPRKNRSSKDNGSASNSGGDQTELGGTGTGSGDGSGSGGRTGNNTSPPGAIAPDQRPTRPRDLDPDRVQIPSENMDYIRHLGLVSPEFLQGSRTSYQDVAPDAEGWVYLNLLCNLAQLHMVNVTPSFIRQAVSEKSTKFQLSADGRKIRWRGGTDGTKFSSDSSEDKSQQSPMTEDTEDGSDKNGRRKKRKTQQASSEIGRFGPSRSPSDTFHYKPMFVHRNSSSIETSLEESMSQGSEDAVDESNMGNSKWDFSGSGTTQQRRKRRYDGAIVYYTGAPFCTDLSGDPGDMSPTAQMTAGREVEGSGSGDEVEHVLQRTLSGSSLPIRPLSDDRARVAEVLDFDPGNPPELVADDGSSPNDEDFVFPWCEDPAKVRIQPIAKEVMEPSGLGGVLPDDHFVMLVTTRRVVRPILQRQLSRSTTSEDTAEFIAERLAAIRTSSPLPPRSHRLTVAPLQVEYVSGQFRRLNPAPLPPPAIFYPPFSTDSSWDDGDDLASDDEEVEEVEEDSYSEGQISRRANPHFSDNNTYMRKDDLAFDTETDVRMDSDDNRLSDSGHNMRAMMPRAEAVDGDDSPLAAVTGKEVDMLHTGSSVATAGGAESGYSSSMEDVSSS

[2] = molecular target: T2, FRQ Δ691–732, V5H6-tagged (Neurospora crassa) (UniProt P19970); test: as above
T2 sequence: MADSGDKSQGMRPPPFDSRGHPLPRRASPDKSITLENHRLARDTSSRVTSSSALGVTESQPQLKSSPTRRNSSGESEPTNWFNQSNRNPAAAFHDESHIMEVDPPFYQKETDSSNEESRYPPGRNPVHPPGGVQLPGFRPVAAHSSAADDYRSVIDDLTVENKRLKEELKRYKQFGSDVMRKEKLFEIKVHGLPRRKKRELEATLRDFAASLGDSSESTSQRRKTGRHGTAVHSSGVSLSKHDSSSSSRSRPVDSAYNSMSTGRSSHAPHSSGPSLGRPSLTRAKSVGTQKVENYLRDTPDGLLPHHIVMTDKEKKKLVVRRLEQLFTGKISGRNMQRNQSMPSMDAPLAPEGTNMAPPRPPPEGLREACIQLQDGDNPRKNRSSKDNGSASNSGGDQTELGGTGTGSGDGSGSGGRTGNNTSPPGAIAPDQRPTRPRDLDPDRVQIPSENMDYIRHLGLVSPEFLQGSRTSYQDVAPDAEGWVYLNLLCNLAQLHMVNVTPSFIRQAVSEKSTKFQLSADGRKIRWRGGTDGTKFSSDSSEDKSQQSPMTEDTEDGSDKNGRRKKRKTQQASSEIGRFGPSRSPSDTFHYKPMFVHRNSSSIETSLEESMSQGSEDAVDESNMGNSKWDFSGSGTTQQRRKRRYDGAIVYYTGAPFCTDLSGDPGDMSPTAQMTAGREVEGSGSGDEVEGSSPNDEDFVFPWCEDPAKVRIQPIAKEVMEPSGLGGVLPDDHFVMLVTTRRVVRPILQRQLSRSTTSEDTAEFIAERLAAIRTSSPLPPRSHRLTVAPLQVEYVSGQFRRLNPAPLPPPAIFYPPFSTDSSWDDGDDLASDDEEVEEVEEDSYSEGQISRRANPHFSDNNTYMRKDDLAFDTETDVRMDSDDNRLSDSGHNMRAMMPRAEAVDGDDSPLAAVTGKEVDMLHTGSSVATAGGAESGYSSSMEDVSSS

binding [1]: no binding
binding [2]: binds weakly
Substance: White Collar-1 (WC-1) (from UniProt Q01371 1-1167)
